# Laboratory results published in PubChem BioAssay (NCATS).
# Results filed as inconclusive are left out. Unless noted, calls follow the shape of the dose curve; as a rule, active = well fitted curve in the direction sought with a large enough effect; inconclusive = small, poorly fitted or top-dose-only effect, or another doubt; inactive = no such curve, though single readings can be large; an effect the other way counts as inactive or inconclusive. Where a structure was tested more than once in an assay, its records may differ in their call. Certain results were filed several times, with different values. They are shown here; other results are not. The source may hold further records. The records of an entry are repeats in other runs, samples, wells, individuals or studies. Records carry a tag for their origin. Letters count within one entry.
# Experiments:
# [1] = qHTS for Inhibitors of the Functional Ribonucleoprotein Complex (vRNP) of Lymphocytic Choriomeningitis Arenaviruses (LCMV): Viability assay - alamar blue signal for LCMV Primary Screen (AID 1347085; calls by dose curve; tested in HEK293 reporter line; also: nearly all actives have a fitted effect of over 80% in size)
# [2] = molecular target: Nucleoprotein (Lymphocytic choriomeningitis virus (strain Armstrong)) (UniProt P09992); experiment: qHTS for Inhibitors of the Functional Ribonucleoprotein Complex (vRNP) of Lymphocytic Choriomeningitis Arenaviruses (LCMV): LCMV Primary Screen - GLuc reporter signal (AID 1347086; calls by dose curve; also: nearly all actives have a fitted effect of over 70% in size)
# Sequence of UniProt P09992 (P09992 whole entry, looked up): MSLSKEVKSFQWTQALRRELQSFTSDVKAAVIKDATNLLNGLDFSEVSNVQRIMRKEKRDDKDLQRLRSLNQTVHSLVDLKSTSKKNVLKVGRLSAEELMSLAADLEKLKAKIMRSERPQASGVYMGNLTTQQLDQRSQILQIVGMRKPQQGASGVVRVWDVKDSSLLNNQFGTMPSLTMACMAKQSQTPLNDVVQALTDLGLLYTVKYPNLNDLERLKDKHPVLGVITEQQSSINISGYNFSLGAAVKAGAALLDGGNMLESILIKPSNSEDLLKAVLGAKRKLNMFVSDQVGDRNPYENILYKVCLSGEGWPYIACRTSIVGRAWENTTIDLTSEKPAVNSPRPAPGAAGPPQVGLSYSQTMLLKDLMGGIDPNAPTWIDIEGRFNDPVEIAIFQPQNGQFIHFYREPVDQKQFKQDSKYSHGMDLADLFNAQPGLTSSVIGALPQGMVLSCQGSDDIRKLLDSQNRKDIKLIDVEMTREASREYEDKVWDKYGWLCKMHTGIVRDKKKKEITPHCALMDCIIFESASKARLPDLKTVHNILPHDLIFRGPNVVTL
# [3] = qHTS for Inhibitors of the Functional Ribonucleoprotein Complex (vRNP) of Lassa (LASV) Arenavirus: Viability assay - alamar blue signal for LASV Primary Screen (AID 1347083; calls by dose curve; tested in HEK293 reporter line; also: nearly all actives have a fitted effect of over 80% in size)
# [4] = qHTS for Inhibitors of the Functional Ribonucleoprotein Complex (vRNP) of Lassa (LASV) Arenavirus: LASV Primary Screen - GLuc reporter signal (AID 1347082; calls by dose curve; tested in HEK293 reporter line; also: nearly all actives have a fitted effect of over 60% in size)
# [5] = qHTS of pediatric cancer cell lines to identify multiple opportunities for drug repurposing: Primary screen for A673 cells (AID 1347092); also: nearly all actives have a fitted effect of over 45% in size
# Procedure, shortened: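 A673 cells (500-1,000 cells/well in growth media) were pre-incubated 5 h at 37 degrees C, then exposed to compounds for 48 h. Viability was read as CellTiter-Glo luminescence; concentration-response curves came directly from the primary screen.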
# [6] = qHTS of pediatric cancer cell lines to identify multiple opportunities for drug repurposing: Primary screen for MG 63 (6-TG R) cells (AID 1347105); also: nearly all actives have a fitted effect of over 50% in size
# Procedure, shortened: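 Cells seeded at 500-1,000 cells/well in growth media, rested 5 hours at 37 degrees C, 5% CO2, then dosed; MIPE compounds at 11-point (from 0.78 nM) and NPC at 8-point (from 0.59 nM) final concentrations. Viability by CellTiter-Glo luminescence after 48 hours.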
# [7] = qHTS of pediatric cancer cell lines to identify multiple opportunities for drug repurposing: Primary screen for SK-N-MC cells (AID 1347093)
# [8] = qHTS of pediatric cancer cell lines to identify multiple opportunities for drug repurposing: Primary screen for NB1643 cells (AID 1347099); also: nearly all actives have a fitted effect of over 50% in size
# [9] = qHTS of pediatric cancer cell lines to identify multiple opportunities for drug repurposing: Primary screen for OHS-50 cells (AID 1347103); also: nearly all actives have a fitted effect of over 40% in size
# Procedure, shortened: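 Cells (500-1,000/well) rested 5 h, then received compounds for 48 h; metabolically active cells were measured by CellTiter-Glo luminescence. Final concentrations spanned up to 46 µM (MIPE, 11-point) or 0.59 nM-46 µM (NPC, 8-point) in primary screens, 11-point in follow-ups.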
# [10] = qHTS of pediatric cancer cell lines to identify multiple opportunities for drug repurposing: Primary screen for SJ-GBM2 cells (AID 1347091)
# Procedure, shortened: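 Viability measured as metabolically active cells via CellTiter-Glo luminescence following 48 hours of compound exposure, 11-point dilutions in confirmatory testing. 500-1,000 cells/well plated 5 hours before dosing; controls were DMSO and 2.3 µM bortezomib.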
# [11] = Primary qHTS for inhibitors of La Crosse Virus (LACV) - induced cell death in SH-SY5Y cells (AID 1508616)
# Procedure, shortened: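 Readout was luminescence from ATPLite 1step added after a 6-day LACV infection (0.01 MOI) of SH-SY5Y cells that had received pin-transferred compound 24 hr after seeding.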
# Potency is read from the fitted curve at half-maximal effect.
smiles,measurement,setting,value
O=c1[nH]cc(F)c(=O)[nH]1,Potency,[1],inactive [sample A] and active: 4.85 µM [sample B]
same,Potency,[2],inactive [sample A] and active: 21.7 µM [sample B]
CC1(CN2CCC(n3c(=O)[nH]c4ccccc43)CC2)OCc2ccccc2-n2cccc21 (stereo not given),Potency,[3],active: 21.7 µM [sample A] and inactive [sample B]
Nc1nc(F)nc2c1ncn2[C@@H]1O[C@H](CO)[C@@H](O)[C@@H]1O,Potency,[4],inactive [sample A] and active: 4.85 µM [sample B]
same,Potency,[3],inactive [sample A] and active: 2.17 µM [sample B]
same,Potency,[1],inactive [sample A] and active: 2.73 µM [sample B]
same,Potency,[2],inactive [sample A] and active: 1.72 µM [sample B]
CN(CCOc1ccc(NS(C)(=O)=O)cc1)CCc1ccc(NS(C)(=O)=O)cc1,Potency,[1],active: 24.3 µM [sample A] and inactive [sample B]
CC(C)(C)CC(C)(C)c1ccc(O)cc1,Potency,[5],active: 38.6 µM [sample A] and inactive [sample B]
same,Potency,[6],active: 38.6 µM [sample A] and inactive [sample B]
COc1cc2ncnc(Nc3ccc(F)c(Cl)c3)c2cc1OCCCN1CCOCC1,Potency,[2],active: 2.5 µM [sample A] and inactive [sample B]
Cc1ccc(S(=O)(=O)NC(=O)NN2CC3CCCC3C2)cc1 (stereo not given),Potency,[4],inactive [sample A] and active: 21.7 µM [sample B]
same,Potency,[3],inactive [sample A] and active: 21.7 µM [sample B]
CC#C[C@]1(O)CC[C@H]2[C@@H]3CCC4=CC(=O)CCC4=C3[C@@H](c3ccc(N(C)C)cc3)C[C@@]21C,Potency,[4],inactive [sample A] and active: 1.22 µM [sample B]
same,Potency,[3],inactive [sample A] and inactive [sample B] and active: 432 nM [sample C]
same,Potency,[1],inactive [sample A] and inactive [sample B] and active: 217 nM [sample C]
same,Potency,[2],inactive [sample A] and inactive [sample B] and active: 273 nM [sample C]
O=C1CC[C@@]2(O)[C@H]3Cc4ccc(O)c5c4[C@@]2(CCN3CC2CC2)[C@H]1O5,Potency,[7],active: 18.7 µM [sample A] and inactive [sample B]
same,Potency,[8],active: 8.33 µM [sample A] and inactive [sample B]
CC12CC3CC(C)(C1)CC(N)(C3)C2,Potency,[3],inactive [sample A] and active: 27.3 µM [sample B] and inactive [sample C]
COc1ccc(C(=O)c2c(C)n(CCN3CCOCC3)c3ccccc23)cc1,Potency,[9],inactive [sample A] and active: 17.4 µM [sample B]
Nc1nc2c(ncn2COC(CO)CO)c(=O)[nH]1,Potency,[3],active: 6.85 µM [sample A] and inactive [sample B]
same,Potency,[1],active: 21.7 µM [sample A] and inactive [sample B]
O=P1(NCCCl)OCCCN1CCCl (stereo not given),Potency,[10],inactive [sample A] and active: 23.5 µM [sample B]
same,Potency,[5],inactive [sample A] and active: 18.7 µM [sample B]
CCCN1CCC[C@@H]2Cc3nc(N)ncc3C[C@H]21,Potency,[11],inactive [sample A] and active: 1.12 µM [sample B]
CN(C)CCCN1c2ccccc2CCc2ccc(Cl)cc21,Potency,[4],inactive [sample A] and active: 2.17 µM [sample B] and inactive [sample C]
same,Potency,[3],inactive [sample A] and active: 1.09 µM [sample B]
same,Potency,[1],inactive [sample A] and active: 1.22 µM [sample B] and inactive [sample C]
same,Potency,[2],active: 2.17 µM [sample A] and inactive [sample B]
